Measured values reported in the supplement of paper PMC11417369.
± gives the standard deviation of the averaged measurements. This is one part of the list.

test system: PfAP2-G AP2 domain (GST-tagged); assay: gcPBM binding intensity (ln(normalized median fluorescence intensity)); higher = stronger DNA binding
In short: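 Binding intensity is the highest Masliner-normalised natural-log median intensity over replicate spots in either probe orientation. To obtain it, GST-tagged P. falciparum DNA-binding domains made in E. coli were incubated for 1 h on an Agilent 4 × 180k array of primer-extended double-stranded 36-bp intergenic genomic probes plus negative controls. Detection used Alexa488 anti-GST antibody with scanning at 488 nm.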

| Sequence | gcPBM binding intensity (ln) |
| --- | --- |
| TACTTTATATTATATATATATATATATATATATATA [CACACA_negctrl_site1765] | 9.74 ± 0.39 |
| GAATTTCGATATATGTGTACGCATTTGTATTATAGG [XGTACX_site6332] | 11.7 ± 1.1 |
| TACATATTGCACAAATAAAAAAGAACAAAAAAAAAA [CACACA_negctrl_site1200] | 10.1 ± 0.16 |
| ATATATATATATATATGTACATATATTCGATTATTA [XGTACX_site557] | 11.4 ± 0.85 |
| ATAATATTTCTTACCTTTGGATGTTCTAATTTTTTT [CACACA_negctrl_site1317] | 9.995 ± 0.007 |
| AAAAAAAAAAAAAAATATAAATATATATATATATAT [GTGCAC_negctrl_site28] | 9.77 ± 0.41 |
| TACATAAAATATATCACACATATAATATATATATAT [CACACA_site5834] | 9.93 ± 0.42 |
| ATTGTAAATATAGAAGTGCAAAAGGGTATGAAATGA | 10.32 ± 0.021 |
| TACAAAAAAAATGTATTTAGGACATATATATGTTTA [XGTACX_negctrl_site455] | 10.2 ± 0.34 |
| AATTAAATATTATAAACACACATATATATTATTTTT [CACACA_site865] | 9.68 ± 0.23 |
| AAACGAACATATAAATGTACATATATATACATATAT [XGTACX_site8086] | 11 ± 0.64 |
| TATGTATTAAATTTTACACACATGATTCTCTATATA [CACACA_site2298] | 9.91 ± 0.042 |
| AATACATTTATGAGCTGTACACATTTATTTGAGCTA [XGTACX_site7695] | 11.5 ± 1 |
| AGTGTAATTTTCCACTGTACTTTTCTTGTATATAAT [XGTACX_site4201] | 11.6 ± 1.1 |
| ATATATATTAATATTTGTACATAAAATTATTTCAAT [XGTACX_site5364] | 11.2 ± 0.49 |
| AAAGTAACACACTAATATTTTAACAAATAATATATA [GTGCAC_negctrl_site132] | 9.84 ± 0.11 |
| TACCTTTCTTATTATTGAAAAGGAATATATAAATAG [CACACA_negctrl_site272] | 9.94 ± 0.16 |
| AATAATAATTTGAATACACACAATAATATATATATA [CACACA_site2059] | 9.9 ± 0.28 |
| ATACAAAAAATCACATGTACATATTCTTAAATGGTA [XGTACX_site8502] | 11.2 ± 0.71 |
| CATATGTATTTATTCACACATATATATATATATATA [CACACA_site4207] | 10.1 ± 0.32 |
| TTATTCTAAAAGTGTTTGCACTTTTATAATCATATA [GTGCAC_site9929] | 9.95 ± 0.22 |
| TATACAGATAAATACACACACACATATATATATATA [CACACA_site4845] | 10.1 ± 0.24 |

| Sequence | gcPBM binding intensity (ln) |
| --- | --- |
| TTATATCATTTTCCTGCACACATAAATTTATATAAT [CACACA_site8257] | 10.3 ± 0.16 |
| ACAAAATATACAAAATGTACAAAATATACAAAATGT [XGTACX_site6467] | 10.6 ± 0.26 |
| TGTATTCCTTTTTATAGTACAATTTAAAAGTATAAA [XGTACX_site2045] | 11.1 ± 0.69 |
| GTACGTTTCTCCAGACTGCACTATACGACTCGTACA [GTGCAC_site9771] | 10.9 ± 0.47 |
| AGAAAGATGCAAGAAACATGCAAAAAAAAAATTTCT [TGCATGCA_site725] | 9.53 ± 0.29 |
| CACAAATATACAAATACACACAAATATACTCATATA [CACACA_site5339] | 10.145 ± 0.007 |
| AAAAAATTATATAATAATAGAACTATACATTTTATT [GTGCAC_negctrl_site645] | 9.59 ± 0.18 |
| ACATAATATATATATTGTACAAATATATTATTGTTA [XGTACX_site3385] | 10.8 ± 0.33 |
| AGCCACGGGTTATATACACACATAATCAAATAAAAT [CACACA_site6117] | 10.1 ± 0.11 |
| ATTTTTAATGGATAAGTGCATAATATTATGATGCAA | 9.99 ± 0.16 |
| TATGTAATAAAATATACACACAATATACTTATATAT [CACACA_site3682] | 9.985 ± 0.021 |
| ATTTATAATATTCAAGTGCATATATATTTTTTACTT | 9.945 ± 0.092 |
| AGCTATATAAATAATACATGCATTGTTCAGGTATTT [TGCATGCA_site964] | 9.74 ± 0.21 |
| TACATAAATTAATAGTCACACACGTATTTTTTATAT [CACACA_site8806] | 10 ± 0.13 |
| TAGTTCCTCAAAAATTTCCTTTGTCATTTTATTCAC [GTGCAC_negctrl_site20] | 10.17 ± 0.085 |
| TATGGAATAAATTTATCCATACATCTTATAACATAT [XGTACX_negctrl_site500] | 9.885 ± 0.049 |
| TAAAGAAATTCTTCATGTACTTATTATTTCTCTTTT [XGTACX_site6817] | 11.2 ± 0.72 |
| GTTATACAAAATAATACATGCATGTCCTACATATAT [TGCATGCA_site320] | 10.9 ± 0.68 |
| TCTATAATATTTTTCACACACCATTTCCTTAAACAC [CACACA_site6747] | 10.3 ± 0.33 |
| AAAAAAATAAAATACAAAATGGCTATACAAAATAAA [GTGCAC_negctrl_site535] | 9.78 ± 0.16 |
| TTTGTTGACGAACACACACACATACATATTTATATA [CACACA_site7141] | 10.3 ± 0.14 |
| TACACGCATAAACACACACACACACCCATATATATA [CACACA_site8114] | 10.1 ± 0.24 |
